According to PMC4336329 (PLoS ONE, 2015):
The whole screen tested about 310,000 compounds, of which about 14,000 (4.5%) showed an effect of 50% or more. Effects have a minus sign here. This is one part of the list.

Biological target: human ether-à-go-go-related gene (hERG) potassium channel (human, UniProt Q12809)
Assay: primary screen, population patch clamp on CHO cells stably expressing hERG
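Note: peak tail current of the secondary pulse compared with the same well before compound.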

Chain of human ether-à-go-go-related gene (hERG) potassium channel (Q12809 whole entry, looked up): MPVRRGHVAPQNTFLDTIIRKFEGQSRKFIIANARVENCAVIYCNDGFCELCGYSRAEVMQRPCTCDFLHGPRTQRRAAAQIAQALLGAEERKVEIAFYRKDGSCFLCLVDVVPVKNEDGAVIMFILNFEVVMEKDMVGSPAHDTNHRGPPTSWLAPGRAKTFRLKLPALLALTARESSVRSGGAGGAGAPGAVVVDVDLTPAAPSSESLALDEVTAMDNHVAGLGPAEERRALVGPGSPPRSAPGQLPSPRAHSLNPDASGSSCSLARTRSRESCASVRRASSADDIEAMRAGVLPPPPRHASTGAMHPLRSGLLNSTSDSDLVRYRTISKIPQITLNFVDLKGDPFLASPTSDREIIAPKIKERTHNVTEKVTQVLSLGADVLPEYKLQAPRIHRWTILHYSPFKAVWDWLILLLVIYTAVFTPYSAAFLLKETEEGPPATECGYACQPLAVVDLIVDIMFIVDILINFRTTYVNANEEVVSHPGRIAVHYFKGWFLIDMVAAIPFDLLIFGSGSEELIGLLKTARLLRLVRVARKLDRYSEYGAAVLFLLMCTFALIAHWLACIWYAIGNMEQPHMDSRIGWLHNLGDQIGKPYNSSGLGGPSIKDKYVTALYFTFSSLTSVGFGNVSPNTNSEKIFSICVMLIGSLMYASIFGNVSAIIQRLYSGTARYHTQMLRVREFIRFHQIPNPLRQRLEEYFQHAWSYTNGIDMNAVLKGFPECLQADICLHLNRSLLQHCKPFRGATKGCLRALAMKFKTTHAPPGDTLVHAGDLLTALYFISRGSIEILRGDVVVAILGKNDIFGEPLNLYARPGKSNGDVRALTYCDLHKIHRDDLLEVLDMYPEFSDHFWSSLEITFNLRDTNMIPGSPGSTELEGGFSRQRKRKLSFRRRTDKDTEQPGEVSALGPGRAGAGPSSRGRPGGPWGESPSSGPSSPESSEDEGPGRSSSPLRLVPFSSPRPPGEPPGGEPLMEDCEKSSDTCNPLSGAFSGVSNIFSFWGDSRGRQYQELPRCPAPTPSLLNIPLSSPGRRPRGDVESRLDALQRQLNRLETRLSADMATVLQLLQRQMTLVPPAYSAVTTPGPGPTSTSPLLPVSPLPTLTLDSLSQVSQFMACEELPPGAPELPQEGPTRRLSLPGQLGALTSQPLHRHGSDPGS

Row | Structure (SMILES) | hERG current change (%, negative = inhibition) at 10uM
1 | Cl.NS(=O)(=O)c1ccc(CCNC/C=C/c2ccccc2)cc1 | -48.7%
2 | COc1cccc(CNC(=O)c2cccc(S(=O)(=O)N3CCN(C)CC3)c2)c1 | -5.06%
3 | C=C(C)Cn1c(N2CCN(c3ccc(OC)cc3)CC2)nc2c1c(=O)n(C)c(=O)n2C | -17.7%
4 | COc1c(OC2OC(C(=O)O)C(O)C(O)C2O)cc(O)c2c(=O)cc(-c3ccccc3)oc12 (stereo not shown) | 11.7%
5 | O=C(COC(=O)Cc1c(F)cccc1Cl)Nc1nnc(-c2ccccc2)o1 | -11%
6 | O=C(NCCc1ccc(F)cc1)c1cccc(NC(=O)c2ccccc2)c1 | -13.9%
7 | CNC[C@H](Cc1ccccc1)NC[C@@H](Cc1cccc2ccccc12)NCCc1ccc(C)cc1 | -8.43%
8 | C=CCn1c(SCc2cccc(OC)c2)nnc1-c1ccncc1 | -15.5%
9 | COc1ccc2c(CC(=O)N3CCc4ccccc43)coc2c1 | 10.1%
10 | O=C(COC(=O)CCC(=O)c1cccs1)NCc1cccs1 | 10.3%
11 | N#Cc1ccccc1S(=O)(=O)N1CCN(Cc2c(O)ccc3ccccc23)CC1 | -6.74%
12 | COCCn1c(=S)[nH]c2ccccc21 | 28.7%
13 | O=S1(=O)N=C2CCCCCN2C(c2ccccc2)N1 (stereo not shown) | -5.77%
14 | CCOC(=O)c1cccc(NC(=O)c2ccc(NC(=O)c3ccco3)cc2)c1 | 19.6%
15 | Cc1ccc(C2=CC(c3ccccc3)n3ncnc3N2)c(C)c1 (stereo not shown) | 5.73%
16 | COc1ccc(/C=C(/NC(=O)c2ccccc2)C(=O)N2CCCCC2)cc1 | -1.39%
17 | CC(=O)NC(Nc1c(C)n(C)n(-c2ccccc2)c1=O)C(Cl)(Cl)Cl (stereo not shown) | 12.9%
18 | O=C(CSc1nc2[nH]ncc2c(=O)[nH]1)Nc1ccccc1F | -16.2%
19 | COCCNC(=S)NCCCNc1nc2cc3c(cc2cc1C#N)OCO3 | -4.47%
20 | Cc1cccc(C)c1NC(=O)CN1C(=O)S/C(=C\c2cccn2-c2cccc(C(=O)O)c2)C1=O | 11.5%
21 | COc1ccc(N(CC(=O)NCc2ccco2)C(=O)CCC(=O)Nc2nccs2)cc1 | 2.22%
22 | O=C(O)C/C(=C\c1cc(Cl)c2c(c1)OCO2)c1nc2ccccc2s1 | 8.49%

Row | Structure (SMILES) | hERG current change (%, negative = inhibition) at 10uM
23 | Cc1cccc(C)c1NC(=O)CSc1cc(C(=O)c2nccn2C)c2ccccc2n1 | 12.6%
24 | CCNC(=O)C(C)NC(=O)C1=NN(c2ccccc2)C(=O)CC1 (stereo not shown) | 11.8%
25 | Cc1ccccc1Nc1c(-c2cccnc2)nc2cccc(C)n12 | -25.2%
26 | COCCOC1CCN(C(=O)c2ccc(OC)c(OC3CCN(C(C)C)CC3)c2)CC1 | 14.4%
27 | Cc1ccc(C(=O)NCC(=O)Nc2cccc(S(=O)(=O)NC3=NCCCCC3)c2)cc1C | 21.5%
28 | CN(CCC(=O)Nc1ccc(Br)cc1)Cc1ccccc1 | -38.4%
29 | CS(=O)(=O)c1ccc2nc(NC(=O)c3cc([N+](=O)[O-])cc([N+](=O)[O-])c3)sc2c1 | -3.36%
30 | CCCn1c(SCC(=O)N2CCCc3ccccc32)nnc1-c1ccco1 | -6.27%
31 | N#CCSc1nnc(-c2c[nH]c3ccccc23)o1 | 5.16%
32 | C=CCNC(=O)CCCOc1cccc(C)c1 | 8.36%
33 | COc1ccc(CCN2CCCn3c2nc2c3c(=O)[nH]c(=O)n2C)cc1OC | 3.03%
34 | CCN(CC)CCSc1nnc2c3ccccc3n(CCc3ccccc3)c2n1 | -75.3%
35 | COc1ccccc1/C=N/NC(=O)C1=NNC(c2ccccc2)(c2ccccc2)C1 | 2.43%
36 | CN(CC(=O)Nc1cccc(F)c1)CC(=O)Nc1cccc(S(N)(=O)=O)c1 | 15.1%
37 | Cc1ccc(NC(=O)Cn2ncc3c([nH]c4ccccc43)c2=O)cc1Cl | 21.4%
38 | Cc1ccccc1NC(=O)NC1(C(=O)N2CCC(C(N)=O)CC2)CCCCC1 | -2.5%
39 | CC(C)(C)NC(=O)NC(=O)CN1c2cccc3cccc(c23)S1(=O)=O | 20%
40 | CSCC[C@H](NS(=O)(=O)c1ccc(C)cc1)C(=O)N1CCC(C(=O)N[C@H](C(=O)O)c2ccccc2)CC1 | -2.1%
41 | CCOc1ccc(N(CC(=O)NC2CCCC(C)C2C)S(=O)(=O)c2c(C)noc2C)cc1 (stereo not shown) | -2.95%
42 | CCOC(=O)c1cc2c(=O)n3ccccc3nc2n(Cc2ccco2)c1=NC(=O)c1ccccc1OCC | -50%
43 | CC1(C)C(=O)Nc2ccccc2N1C(=O)COC(=O)CCSc1ccccc1 | -5.53%
44 | Cc1ccccc1-n1ncc2c([N+](=O)[O-])cc([N+](=O)[O-])cc21 | -11.8%

Row | Structure (SMILES) | hERG current change (%, negative = inhibition) at 10uM
45 | COC(CNC(=O)C(=O)Nc1cc2c3c(c1)CCN3C(=O)CC2)OC | 20.1%
46 | COc1cccc(C(C2C(=O)CC(C)(C)CC2=O)C2C(=O)CC(C)(C)CC2=O)c1 | 21.2%
47 | CCOC(=O)c1sc(NC(=O)c2cc(S(=O)(=O)N3CCOCC3)ccc2C)nc1C | -60.9%
48 | COc1ccc(Nc2nc(N)nc(CSC(=S)N3CCN(C)CC3)n2)cc1 | -12.5%
49 | O=C(CO/N=C/c1cccc([N+](=O)[O-])c1)Nc1ccc2ccccc2c1 | 3.23%
50 | N#C/C(=C/c1cccn1-c1cccc(C(=O)O)c1)c1ccc(Cl)cc1 | 11.5%
51 | COc1cccc2sc(N(CCN(C)C)C(=O)c3ccc(S(=O)(=O)N4CCCC4)cc3)nc12.Cl | -31.2%
52 | COc1cccc(-c2n[nH]c(=S)n2Cc2ccco2)c1OC | 6.08%
53 | Cc1ccccc1C(=O)Nc1ccnn1C1CCN(Cc2cccnc2)CC1 | -77.4%
54 | COC(c1ccccc1)c1nnc(CCC(=O)NCCC(C)C)o1 (stereo not shown) | 11.6%
55 | Cc1ccc(S(=O)(=O)NN2C(=O)/C(=C/c3ccc(C(=O)O)cc3)SC2=S)cc1 | 19.9%
56 | COc1ccccc1NC(=O)c1ccccc1C(=O)O | 21.8%
57 | COC(=O)C1=C(C)Nc2nc(-c3ccccc3)nn2C1c1ccc(C)o1 (stereo not shown) | -12.4%
58 | CSc1cccc(NC(=O)C2CCCN2S(=O)(=O)c2ccc(Br)s2)c1 (stereo not shown) | 5.27%
59 | Cc1ccc(CNC(=O)C(=O)NCC2OCCN2S(=O)(=O)c2cccs2)cc1 (stereo not shown) | 6.69%
60 | COc1cc(OC)c(OC)cc1/C=C1\SC(N2CCCCC2)=NC1=O | 17.6%
61 | CCOc1ccc(C2=C/C(=C/c3cccnc3)C(=O)O2)cc1 | 5.07%
62 | O=S(=O)(Nc1ccc(S(=O)(=O)N2CCOCC2)cc1)c1ccc(Br)cc1 | -28.7%
63 | Cc1ccc(S(=O)(=O)N(C)CCCC(=O)NCc2ccc3c(c2)OCO3)cc1 | -23.5%
64 | CC1(C(=O)NNC(=O)c2ccc([N+](=O)[O-])cc2)CC1(Br)Br (stereo not shown) | -0.0404%
65 | CCOc1cc(CNc2ccccc2)cc(Br)c1OCc1ccc(F)cc1 | 10.3%
66 | Cn1c(-c2sc3cc(C(F)(F)F)cnc3c2-c2cccnc2)n[nH]c1=S | 23.6%

Row | Structure (SMILES) | hERG current change (%, negative = inhibition) at 10uM
67 | O=C(CNCC1CCCO1)NCc1ccco1.O=C(O)C(=O)O (stereo not shown) | 14%
68 | COc1ccc(-c2noc(-c3ccccc3C(=O)NCC3CCCO3)n2)cc1 (stereo not shown) | -21.5%
69 | O=C(Nc1cccc(O)c1)c1cc2nc(-c3ccccc3)cc(-c3ccccc3)n2n1 | 9.68%
70 | O=C1C2=C(NC(=S)NC2c2ccc(Cl)cc2)NC(c2ccc(Cl)cc2)N1c1ccc(Cl)cc1 (stereo not shown) | 8.94%
71 | Cc1nc2ccc(S(=O)(=O)Nc3ccc(-c4nc5cccnc5s4)cc3)cc2s1 | 13.4%
72 | COc1ccc(-c2cc3cc(C(=O)[O-])ccn3c2C(=O)c2ccccc2)cc1.O | 15.2%
73 | CCC(=NC1CC(C)(C)NC(C)(C)C1)C1=C(O)CC(C)(C)CC1=O | 5.83%
74 | CCC1ON(C(C)C)C2c3nc4ccccc4n3CC12 (stereo not shown) | 23.3%
75 | Nc1cc(=O)[nH]c(SCC(=O)Nc2cc(Cl)cc(Cl)c2)n1 | 14.8%
76 | Cc1cccc(NC(=O)c2ccc3c(c2)OCCO3)n1 | 9.65%
77 | CCOc1ccc(CC(=O)N/N=C(\C)c2cccnc2)cc1 | 17%
78 | CNS(=O)(=O)c1ccc(N=Cc2c(O)n(-c3ccc(C)cc3)c(=O)[nH]c2=O)cc1 | 8%
79 | Cc1cc(S(=O)(=O)NCc2ccccc2)ccc1OCC(=O)N1CCN(C)CC1 | -3.06%
80 | CC(C)c1cc(C(=O)Nc2cccc(Cl)c2)no1 | 3.17%
81 | O=C(CCNc1n[nH]c(=O)[nH]c1=O)N/N=C/c1ccc(Cl)cc1 | 18.4%
82 | CSc1ccccc1C(=O)Nc1ccc(S(=O)(=O)NC2=NCCCCC2)cc1 | 7.13%
83 | CCn1c(SCC(=O)N2CCCC2)nnc1-c1ccco1 | 8.9%
84 | O=C(O)CCS(=O)(=O)c1ccccc1Cl | 11%
85 | CCOc1ccc(S(=O)(=O)N(CC(=O)N2CCc3ccccc32)Cc2ccco2)cc1 | 11%
